Measurements: PMC4336329 (PLoS ONE, 2015)
Among all 310,000 compounds or so, about 14,000 (4.5%) showed an effect of 50% or more. The effect is printed as a negative number. This is one part of the list.

Biological target: human ether-à-go-go-related gene (hERG) potassium channel (human, UniProt Q12809)
Assay: primary screen, population patch clamp on CHO cells stably expressing hERG
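Note: peak tail current of the secondary pulse compared with the same well before compound.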

Sequence of human ether-à-go-go-related gene (hERG) potassium channel (Q12809 whole entry, looked up): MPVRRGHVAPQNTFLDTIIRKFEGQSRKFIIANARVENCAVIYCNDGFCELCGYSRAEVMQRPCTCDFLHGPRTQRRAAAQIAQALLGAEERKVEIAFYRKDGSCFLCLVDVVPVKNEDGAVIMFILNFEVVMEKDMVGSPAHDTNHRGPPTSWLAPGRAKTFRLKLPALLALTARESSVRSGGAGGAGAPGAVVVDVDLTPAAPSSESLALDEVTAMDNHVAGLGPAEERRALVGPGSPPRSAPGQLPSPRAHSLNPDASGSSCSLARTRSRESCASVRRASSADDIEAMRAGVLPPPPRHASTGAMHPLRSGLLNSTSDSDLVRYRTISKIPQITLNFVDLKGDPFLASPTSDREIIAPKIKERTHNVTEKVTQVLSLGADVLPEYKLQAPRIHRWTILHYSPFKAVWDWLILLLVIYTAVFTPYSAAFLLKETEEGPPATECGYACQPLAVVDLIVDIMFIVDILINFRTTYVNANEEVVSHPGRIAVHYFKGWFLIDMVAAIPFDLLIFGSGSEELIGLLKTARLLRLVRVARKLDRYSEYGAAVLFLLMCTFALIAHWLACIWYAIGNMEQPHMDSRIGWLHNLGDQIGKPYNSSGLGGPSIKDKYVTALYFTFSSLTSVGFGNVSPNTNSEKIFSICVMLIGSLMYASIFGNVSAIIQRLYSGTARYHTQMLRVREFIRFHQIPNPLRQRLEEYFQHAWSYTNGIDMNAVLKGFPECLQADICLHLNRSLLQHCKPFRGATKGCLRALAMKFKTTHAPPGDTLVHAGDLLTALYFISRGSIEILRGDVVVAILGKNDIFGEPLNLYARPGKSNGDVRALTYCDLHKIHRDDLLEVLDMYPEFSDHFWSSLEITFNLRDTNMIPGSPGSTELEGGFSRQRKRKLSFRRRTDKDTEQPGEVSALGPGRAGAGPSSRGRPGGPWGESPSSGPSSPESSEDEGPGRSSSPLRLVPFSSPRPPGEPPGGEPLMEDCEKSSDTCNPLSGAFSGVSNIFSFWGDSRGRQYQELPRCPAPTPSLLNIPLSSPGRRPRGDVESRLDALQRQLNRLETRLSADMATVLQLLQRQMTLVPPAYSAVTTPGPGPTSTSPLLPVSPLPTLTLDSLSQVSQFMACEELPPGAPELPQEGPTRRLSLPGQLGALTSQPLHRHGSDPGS

Compound	hERG current change (%, negative = inhibition) at 10uM
CC(C)(C)C(=O)Nc1ccc(N2CCN(c3ccc(C(F)(F)F)cn3)CC2)nc1	-4.78%
CC(=O)Nc1cccc(-c2csc(NCc3ccccc3)n2)c1.O=C(O)C(=O)O	-8.18%
Cc1cccc(-n2ncc3c(NCc4ccc5c(c4)OCO5)ncnc32)c1	6.07%
CCc1ccccc1NC(=S)NC1CC2CCC(C1)N2Cc1ccc(F)cc1 (stereo not shown)	-42%
COC(=O)c1ccccc1NC(=O)CSCC(=O)Nc1ccc(F)cc1	-18.1%
Cc1cc(NC(=O)Cn2c(=O)n(CCCCC(=O)NC3CCN(Cc4ccccc4)CC3)c(=O)c3ccccc32)n[nH]1	26.5%
O=C(CCS(=O)(=O)c1ccc(F)cc1)Nc1nnc(-c2ccco2)o1	15.8%
c1ccc(-n2ncc3c(NC4CCCCCC4)ncnc32)cc1	7.31%
CN(C)CC/C=C1\c2ccccc2Sc2ccc(Cl)cc21.Cl	-56.7%
O=C(O)CNS(=O)(=O)c1cccc2nsnc12	-3.29%
Cc1cccc(NC(=O)COC(=O)c2cc(C)oc2C)c1	-48.1%
NC(=O)C[n+]1ccc(/C=N/O)cc1.[Cl-]	2.23%
Cc1cccc(NC(=O)/C(C#N)=C\c2cn(CC(=O)O)c3ccccc23)c1	10.3%
COCCCn1c(SCCc2ccccc2)nc2cc(OC)c(OC)cc2c1=N	-12.7%
CCC(=O)OCCNc1cc(Sc2nc3ccccc3[nH]2)c2nonc2c1[N+](=O)[O-]	8.13%
O=C(Nc1ccn(Cc2ccccc2F)n1)c1ccc(COc2cc(Cl)ccc2Cl)o1	13%
C=CCNc1ncnc2c1[nH]c1ccc(C)cc12	0.512%
COc1ccc(C=C(C(C)=O)C(C)=O)cc1OC	5.59%
Fc1ccc(F)c(NC(=S)NCCc2ccccc2)c1	8.07%
O=S(=O)(N1CCOCC1)n1cnc2ccccc21	-0.341%
COc1ccc(CCn2cnc(=O)c(C#N)c2C)cc1OC	7.94%
O=C(c1cc(-c2ccc(Cl)cc2)nc2ccccc12)N1CCOCC1	-68.8%
CNC(=O)CSc1nnc(COc2ccc([N+](=O)[O-])cc2)n1C	4.51%
O=C(Nc1nc2c(F)cc(F)cc2s1)c1ccco1	-5.62%
CCc1[nH]nc2c1C(C(C)C)C(C#N)=C(N)O2 (stereo not shown)	10.8%
